Out of some 410,000 compounds screened, about 850 (0.21%) were called active. This list was built around the results that the source calls inconclusive (neither active nor inactive); the mix of calls is not that of the screen. Calls follow the shape of the dose curve; as a rule, active = well fitted inhibition curve with a large enough effect; inconclusive = small, poorly fitted or top-dose-only effect, or another doubt; inactive = no such curve, though single readings can be large or run the other way. No potency is given beside an inconclusive call; the fits are too rough.
What follows are compounds tested against Glutaminase kidney isoform, mitochondrial (Homo sapiens) (UniProt O94925) (assay: qHTS for Inhibitors of Glutaminase (GLS)). Conditions: GLS enzymatic activity, qHTS titration; series mostly up to 45.5 µM; activity change, negative = inhibition: at the top concentration.
Chain of UniProt O94925 (O94925 whole entry, looked up, canonical isoform): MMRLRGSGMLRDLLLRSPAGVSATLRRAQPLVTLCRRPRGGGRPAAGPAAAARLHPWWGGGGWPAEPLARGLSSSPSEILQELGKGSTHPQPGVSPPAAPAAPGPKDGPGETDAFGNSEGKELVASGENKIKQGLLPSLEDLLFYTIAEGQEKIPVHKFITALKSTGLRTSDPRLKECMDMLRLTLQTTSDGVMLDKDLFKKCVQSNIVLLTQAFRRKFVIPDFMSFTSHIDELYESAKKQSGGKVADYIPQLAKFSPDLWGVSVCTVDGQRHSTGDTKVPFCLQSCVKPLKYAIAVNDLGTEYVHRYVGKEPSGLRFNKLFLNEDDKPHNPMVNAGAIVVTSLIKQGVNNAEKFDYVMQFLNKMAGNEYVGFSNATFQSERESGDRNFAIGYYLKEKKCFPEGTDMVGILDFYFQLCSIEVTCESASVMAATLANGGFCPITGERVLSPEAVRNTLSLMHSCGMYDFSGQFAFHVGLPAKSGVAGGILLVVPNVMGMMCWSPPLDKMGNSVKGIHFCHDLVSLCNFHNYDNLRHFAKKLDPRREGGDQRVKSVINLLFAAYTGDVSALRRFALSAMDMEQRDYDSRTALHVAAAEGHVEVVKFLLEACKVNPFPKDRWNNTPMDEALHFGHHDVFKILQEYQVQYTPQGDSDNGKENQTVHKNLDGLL
Description: Glutaminase (GLS) catalyzes the hydrolysis of glutamine into glutamate and ammonia. It plays a critical role in glutaminolysis, which is an important energy source for proliferating cells. It was shown that c-Myc, an oncogenic transcription factor known to regulate microRNAs and to stimulate cell proliferation, increases glutamine metabolism by stimulating the expression of GLS via direct suppression of miR23a and miR23b.
GLS is also thought to play a pathogenic role on HAD using a human HIV-1 infected macrophage system. […] GLS inhibition limits glutamate release and provides neuroprotection against HIV-1 infected macrophages.
The overall goal of this project is to identify small molecule inhibitors of GLS through quantitative high throughput screening (qHTS) of the MLSMR. A validated potent and selective inhibitor can be used as a tool molecule to further study the pharmacology of its target as well as explore its potential therapeutic application in cancer and inflammatory neurological disorders, such as HIV1-associated dementia (HAD) and multiple sclerosis.
NIH Chemical Genomics Center [NCGC]
NIH Molecular Libraries Probe Centers Network [MLPCN]
Assay Submitter (PI): Barbara S. Slusher, Johns Hopkins University
Three 3 uL of hKGA is dispensed into black well 1536-well plates in 45 mM KH2PO4 (pH 8.2), 0.02% Tween-20. Then 23 nL of compounds are added through pin tool transfer. To this, 1 uL of 1mM L-Glutamine and 1 uL of a solution of L-Glutamateoxidase, HRP, Amplex red are added. Plate is centrifuged for 25 sec before an initial fluorescence read is obtained on the ViewLux, after 30 min of RT incubation, the final read is taken on the ViewLux.
% is scaled to controls: 0 for no effect and ±100 for the full control effect; potency is read from the fitted curve at half-maximal effect; tags tell the direction and shape of the fitted curve.

SMILES	activity change, negative = inhibition	Potency
CC1(C)Cc2ccccc2C(/C(C#N)=N/O)=N1	inactive: 0.343%	–
CSc1ccc(C(c2c(C(=O)O)[nH]c3ccccc23)c2c(C(=O)O)[nH]c3ccccc23)cc1	–	inconclusive [inhibitor, single point]
C/C(=N\NC(=O)CCc1ccccc1)C1C(=O)c2ccccc2C1=O	inactive: -8.44%	–
Cc1ccc(C(c2c(C)[nH][nH]c2=O)c2c(C)[nH][nH]c2=O)cc1	–	inconclusive [inhibitor, partial curve]
COCc1ccc(CN2CCCC(C(=O)Nc3ccc(-c4cccc(OC)c4)cc3)C2)o1 (centres undefined)	inactive: -5.36%	–
CCOC(=O)c1sc(=S)[nH]c1C	–	inconclusive [inhibitor, single point]
CN(Cc1ccccc1)c1nc(-c2cccc([N+](=O)[O-])c2)nc2ccccc12	–	inconclusive [inhibitor, single point]
Cc1nc2ccccc2c(=O)n1/N=C/c1ccc(O)c(O)c1O	–	inconclusive [inhibitor, single point]
Fc1ccc(-c2csc(N3CCOCC3)n2)cc1	inactive: -4.98%	–
O=C1NC2c3c(Cl)sc(Cl)c3C(=O)C2O1 (centres undefined)	–	inconclusive [inhibitor, partial curve]
CCOc1ccccc1N1C(=O)CC(Sc2n[nH]c(-c3ccccc3)n2)C1=O (centres undefined)	–	inconclusive [inhibitor, partial curve]
Cc1cc(C)c2oc(C(=O)Nc3nnc(C(C)C)s3)cc(=O)c2c1	–	inconclusive [inhibitor, single point]
Cc1ccc(S(=O)(=O)N2CCCC2C(=O)NCc2ccccc2Cl)cc1 (centres undefined)	inactive: -0.854%	–
COc1ccccc1NC(=O)Cn1c(=O)n(CCc2ccccc2)c(=O)c2c3c(sc21)CN(C(C)=O)CC3	inactive: 2.88%	–
C#CCOCCOCCOCCNc1nc(N2CCN(C(=O)CCCCCCCCCCNC(=O)[C@H](CCCCN)n3cc(C[C@@H](C)CC)nn3)CC2)nc(N2CCN(C(=O)CCCCCCCCCCNC(=O)[C@H](CCCN=C(N)N)n3cc(C[C@@H](C)CC)nn3)CC2)n1	–	inconclusive [inhibitor, partial curve]
CC(=O)C(C(C)=O)C(NC(=O)c1cccnc1)(C(F)(F)F)C(F)(F)F	–	inconclusive [inhibitor, single point]
Cc1cc(NC(=O)CN2CCCC(C)C2)no1 (centres undefined)	–	inconclusive [inhibitor, single point]
Cc1ccc(S(=O)(=O)NNC(=O)c2cc([N+](=O)[O-])c(C)c([N+](=O)[O-])c2)cc1	–	inconclusive [inhibitor, partial curve]
Cc1ccc(C(=O)Nc2ncccc2C)o1	inactive: 20%	–
Cc1ccc(N=Cc2cc(Cc3ccccc3Cl)cc([N+](=O)[O-])c2O)c(O)c1	–	inconclusive [inhibitor, single point]
O=C(NCCS(=O)(=O)N1CCN(c2ccccc2F)CC1)c1ccc(Br)o1	–	inconclusive [inhibitor, partial curve, poor fit]
CO/N=C/c1c(C(=O)OC)nn(-c2ccccc2)c1Cl	–	inconclusive [inhibitor, single point]

SMILES	activity change, negative = inhibition	Potency
CCOC(=O)C(=CNNc1ccccc1)C(=O)OCC	–	inconclusive [inhibitor, partial curve]
Nc1nnnn1/N=C/c1ccccc1C(F)(F)F	–	inconclusive [inhibitor, single point]
Cc1cc(-c2n[nH]c(=S)n2/N=C/C=C/c2ccco2)n[nH]1	–	inconclusive [inhibitor, single point]
CCOC(=O)c1c(/N=C/c2ccccc2O)sc2c1CCC2	–	inconclusive [inhibitor, partial curve, poor fit]
CCOc1ccccc1N1C(=O)CC(Sc2ncccc2C(=O)O)C1=O (centres undefined)	–	active: 17.8 µM
S=C(NCCCN1CCOCC1)Nc1ccc(Nc2ccccc2)cc1	–	inconclusive [inhibitor, partial curve]
COc1cccc(NC(=O)Nc2ccc3nsnc3c2)c1	inactive: 3.76%	–
C/C(O)=C(\N=Nc1cc(C)ccc1O)C(N)=O	–	inconclusive [inhibitor, single point]
COc1cccc(C2CC(=O)Nc3c2c(=O)n(C)c2ncnn32)c1OC (centres undefined)	inactive: -15.5%	–
COc1ccc(-c2nnc(SCC(=O)Nc3ccc(C(C)=O)cc3)nc2-c2ccc(OC)cc2)cc1	inactive: -12.8%	–
CC(=O)c1c(C)[nH]c(C(=O)OCC(=O)Nc2ncc(Cl)c(C)c2Cl)c1C	inactive: -1.44%	–
CN(C)c1ccc(C(=O)c2ccc(O)cc2O)cc1	inactive: 31.2%	–
NC(=O)c1ccc(NC(=O)CSc2nnc(-c3cccnc3)n2Cc2ccco2)cc1	–	inconclusive [inhibitor, single point]
O=C(COC(=O)/C=C/c1ccc(Br)o1)NC1CCCCC1	–	inconclusive [inhibitor, partial curve, poor fit]
COC(=O)CCCNC(=O)c1ccc2oc(CCCc3ccccc3)nc2c1	inactive: 28.7%	–
COc1ccc(/C=N/n2cnnc2)cc1Oc1nc(Cl)ncc1F	inactive: 2.95%	–
Cc1nc(C/C(=N\N)c2ccc(O)cc2O)cs1	–	inconclusive [inhibitor, partial curve, poor fit]
CCN1CCN(CC(=O)Nc2ccc(S(=O)(=O)N3C(C)CCCC3C)cc2)CC1 (centres undefined)	–	inconclusive [inhibitor, single point]
CCN=C1S/C(=C\c2ccc(-c3cccc(C(=O)O)c3)o2)C(=O)N1CC	–	inconclusive [inhibitor, single point]
CCc1ccc(-c2nn(Cc3ccccc3)cc2C(=O)NCC2CCCO2)cc1 (centres undefined)	–	inconclusive [inhibitor, single point]
O=C(c1c(F)c(F)c(F)c(F)c1F)N1CCN(c2cccc(C(F)(F)F)c2)CC1	–	inconclusive [inhibitor, single point]
COc1ccc2c(c1)CCc1c(C(=O)N(C)c3ccccc3)noc1-2	inactive: -2.65%	–

From PubChem BioAssay AID624170 (National Center for Advancing Translational Sciences (NCATS), 2012)
